Activity change, negative = inhibition data for 38 compounds are collected here from PubChem BioAssay AID1745853 (National Center for Advancing Translational Sciences (NCATS), 2022).

Each structure is given as a SMILES string. The list shows a part of the results. Further columns of the screen follow, without active or inactive calls.

Holding throughout (assay): Primary Screen for Target Class Profiling of Small Molecule Inhibitors of Methyltransferases
Test [1] deals with Glycine N-methyltransferase (Homo sapiens) (UniProt Q14749). Conditions: purified enzyme, MTase-Glo SAH luminescence; measured here: GNMT inhibition; at 40 µM; stronger effect = lower value. Summed up: (§1)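 Each enzyme was reacted with SAM and its substrate, with compounds tested once at 40 uM; SAH formed was read by MTase-Glo luminescence.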
In test [2] the target is Guanidinoacetate N-methyltransferase (Homo sapiens) (UniProt Q14353). Conditions: purified enzyme, MTase-Glo SAH luminescence; measured here: GAMT inhibition; at 40 µM; stronger effect = lower value. The essentials:
as §1

Test [3] concerns the target Histamine N-methyltransferase (Homo sapiens) (UniProt P50135). Conditions: purified enzyme, MTase-Glo SAH luminescence; measured here: HNMT inhibition; at 40 µM; stronger effect = lower value. The essentials:
as §1

Test [4] deals with Nicotinamide N-methyltransferase (Homo sapiens) (UniProt P40261). Conditions: purified enzyme, MTase-Glo SAH luminescence; measured here: NNMT inhibition; at 40 µM; stronger effect = lower value. Summed up: as §1
For test [5], the target named is Phenylethanolamine N-methyltransferase (Homo sapiens) (UniProt P11086). Conditions: purified enzyme, MTase-Glo SAH luminescence; measured here: PNMT inhibition; at 40 µM; stronger effect = lower value. Summed up:
as §1
On the % scale 0 is the no-effect control and ±100 the full control effect.

With `CC1(C(=O)NC2CCCCCCC2)Cn2c(ccc2-c2ccco2)C(=O)N1Cc1ccco1` (stereo not given), the activity change, negative = inhibition in test [1] was -15%; in test [2], -1.69%; in test [3], -0.738%; in test [4] it was -9%; in test [5], -3.21%.
With `COc1cccc(-c2ccc(C(=O)N3CCC(NC(=O)c4ccc(C(F)(F)F)cc4)CC3)cc2)c1`, the activity change, negative = inhibition in test [1] was -2.79%; in test [2] it was 2.73%; in test [3], 2.02%; in test [4], 0.674%; in test [5] it was 18.1%.
Consider `CC1(C(=O)NC2CCCCCC2)Cc2ccccc2C(=O)N1C1CCCCC1` (stereo not given), for which the activity change, negative = inhibition in test [1] was -6.65%; in test [2], -0.491%; in test [3] it was -1.11%; in test [4], 2.24%; in test [5] it was -4.77%.
For `CN(CCCN1C(=O)c2ccc(-c3ccco3)n2CC1(C)C(=O)NC1CCCC1)Cc1ccccc1` (stereo not given), the activity change, negative = inhibition in test [1] is -0.311%; in test [2], 0.054%; in test [3] it was 0.311%; in test [4], 6.77%; in test [5], 0.421%.
`CCOc1ccccc1CN1C(=O)c2cc3sc(CC)cc3n2CC1(C)C(=O)NC1CCCCC1` (stereo not given): the activity change, negative = inhibition in test [1] was determined as 2.12%; in test [2] it was 5.9%; in test [3], 7.9%; in test [4], 1.02%; in test [5] it was 0.955%.
With `COc1ccc(NC(=O)N2C[C@@H]3C[C@H](C2)c2c(NC(=O)C4CCCCC4)ccc(=O)n2C3)cc1`, the activity change, negative = inhibition in test [1] is -2.05%; in test [2], -2.94%; in test [3], 0.056%; in test [4] it was -3.02%; in test [5], 4.1%.
Turning to `CC1(C)S[C@@H]2[C@H](NC(=O)[C@H](NC(=O)N3CCN(S(C)(=O)=O)C3=O)c3ccccc3)C(=O)N2[C@H]1C(=O)O`, the activity change, negative = inhibition in test [1] is -4.26%; in test [2] it was -2.04%; in test [3], 6.36%; in test [4], -17%; in test [5], -0.891%.
In the case of `Cn1c(=O)cc(N2CCC[C@@H](N)C2)n(Cc2ccccc2C#N)c1=O`, the activity change, negative = inhibition in test [2] is 3.66%; in test [4], -13.4%; in test [5] it was 4.88%.
As to `CCOc1ccc(-c2nc(-c3cccc4c3CCC4NCCO)no2)cc1OCC` (stereo not given), the activity change, negative = inhibition is 5.16% in test [1]; 10.9% in test [2]; 8.59% in test [3]; -3.27% in test [4]; 2.95% in test [5].
For the compound `O=C(N[C@@H]1CN(Cc2ccccc2)C[C@H]1CO)c1cn[nH]c1`, the activity change, negative = inhibition in test [1] was -6.49%; in test [2], -3.17%; in test [3], -0.549%; in test [4], -4.39%; in test [5] it was -0.423%.
For the compound `O=C(CCc1nnc2n(Cc3ccccc3)c(=O)c3ccccc3n12)N1CCN(c2ccc(F)cc2)CC1`, the activity change, negative = inhibition is -19.3% in test [1]; 2.42% in test [2]; -3.63% in test [3]; -11.5% in test [4]; -4.55% in test [5].
For the compound `C[C@@H]1CC[C@]2(C(=O)O[C@@H]3O[C@H](CO[C@@H]4O[C@H](CO)[C@@H](O[C@@H]5O[C@@H](C)[C@H](O)[C@@H](O)[C@H]5O)[C@H](O)[C@H]4O)[C@@H](O)[C@H](O)[C@H]3O)CC[C@]3(C)C(=CCC4[C@@]5(C)C[C@@H](O)[C@H](O)[C@@](C)(CO)C5CC[C@]43C)C2[C@H]1C` (stereo not given in full), the activity change, negative = inhibition in test [1] turned out to be 0.362%; in test [3], 7.92%.
As for `COc1cccc(N2C(=O)c3cc(-c4ccccc4)nn3CC2(C)C(=O)NCc2ccccc2)c1` (stereo not given), the activity change, negative = inhibition was 1.36% in test [1]; 1.08% in test [2]; 3.98% in test [3]; 5.33% in test [4]; -0.654% in test [5].
As to `NC1CCCCN(c2c(F)cc3c(=O)c(C(=O)O)cn(C4CC4)c3c2Cl)C1` (stereo not given), the activity change, negative = inhibition was -0.75% in test [1]; 3.95% in test [2]; -14.9% in test [3]; -9.93% in test [4]; 2.27% in test [5].
As for `Cc1noc(C)c1CC(=O)N1CCCn2cc(-c3ccccc3F)nc21`, the activity change, negative = inhibition is -3.36% in test [1]; -3.75% in test [2]; -2.29% in test [3]; -11.4% in test [4]; 1.05% in test [5].
Regarding `COc1ccc(CN2C(=O)c3cc4ccccc4n3CC2(C)C(=O)NC2CCCC2)cc1OC` (stereo not given), the activity change, negative = inhibition was 2.68% in test [1]; 4.1% in test [2]; 2.7% in test [3]; -3.79% in test [4]; 1.68% in test [5].
In the case of `CCCC1c2cccn2CCN1C(=O)NCCCOC` (stereo not given), the activity change, negative = inhibition in test [1] was 3.38%; in test [2] it was 0.259%; in test [3], 6.15%; in test [4], 6.1%; in test [5], 7.04%.
`Cc1ccccc1CN1C(=O)c2nc3ccccc3n2CC1(C)C(=O)NC1CCC(C)CC1` (stereo not given): the activity change, negative = inhibition in test [1] was -2.92%; in test [2], 3.07%; in test [3] it was 0.144%; in test [4], 1.57%; in test [5], -5.19%.
`CCOc1ccccc1NC(=O)N1Cc2c(sc3c2CCN(C)C3)-n2cccc2C1CC` (stereo not given): the activity change, negative = inhibition is -6.66% in test [1]; 1.85% in test [2]; -4.14% in test [3]; -10.3% in test [4]; -3.96% in test [5].
As to `Cc1ccc(NC(=O)N2CCN(c3nnnn3-c3ccccc3)CC2)cc1`, the activity change, negative = inhibition in test [1] was -4.86%; in test [2], -5.47%; in test [3] it was -2.03%; in test [4] it was -17.4%; in test [5] it was 6.14%.
Consider `CCCOc1ccc(CN2C(=O)c3cc4occc4n3CC2(C)C(=O)NC2CCCC(C)C2C)cc1` (stereo not given), for which the activity change, negative = inhibition turned out to be 1.38% in test [1]; 0.049% in test [2]; 7.29% in test [3]; 0.756% in test [4]; 0.533% in test [5].
With `COc1ccccc1-c1ccc(C(=O)N2CCC(C(=O)Nc3ccccc3Cl)CC2)cc1`, the activity change, negative = inhibition is -1.65% in test [1]; -1.59% in test [2]; 0.109% in test [3]; -4.25% in test [4]; -0.296% in test [5].
Turning to `CCN(Cc1cc(Nc2nc(C)cn3c(-c4cn[nH]c4)cnc23)sn1)C(C)(C)CO`, the activity change, negative = inhibition is -11.8% in test [1]; -18.8% in test [2]; -43.5% in test [3]; -17.4% in test [4]; -11.7% in test [5].
Consider `CC[C@H]1CN(C(=O)C(C)(C)C)CC[C@H]1CC(=O)NCc1cccnc1`, for which the activity change, negative = inhibition in test [1] is -3.62%; in test [2], -7.36%; in test [3], 0.869%; in test [4], -6.33%; in test [5] it was 0.652%.
`COc1cccc(CN2C(=O)c3ccc(-c4ccccc4)n3CC2(C)C(=O)NC2CCC(C)CC2)c1` (stereo not given): the activity change, negative = inhibition is 0.024% in test [1]; 4.87% in test [2]; 0.148% in test [3]; -2.88% in test [4]; 0.86% in test [5].
In the same order, the values of `COCCCNCC1COc2ccccc2O1` (stereo not given) are 2.6%, 7.48%, 12.4%, -7.75% and 6.21%.
On to `CNCCC(Oc1ccccc1OC)c1ccccc1` (stereo not given), for which the activity change, negative = inhibition in test [1] was -5.68%; in test [2], 8.63%; in test [3] it was 5.91%; in test [4], -9.63%; in test [5], -0.661%.
Turning to `OCC1(Cc2ccc(F)cc2F)CCCN(c2cnc3ccccc3n2)C1` (stereo not given), the activity change, negative = inhibition in test [1] was -16.6%; in test [2], -4.75%; in test [3], -5.35%; in test [4], -15.4%; in test [5] it was -12.3%.
In the same order, the values of `COc1ccc(F)c(CN2CCC3(CCC(=O)N(CCO)C3)CC2)c1` are -1.97%, -5.78%, -1.89%, -6.94% and -4.08%.
On to `CC(C)(O)/C=C/C1=CC(=O)[C@@](C)(O)C[C@H]1O`, for which the activity change, negative = inhibition in test [1] is -1.09%; in test [2] it was -0.317%; in test [3], 7.93%; in test [4] it was -14.7%; in test [5], -9.63%.
On to `CC(C)c1ccc(N2C(=O)c3ccccc3CC2(C)C(=O)NCc2ccccc2)cc1` (stereo not given), for which the activity change, negative = inhibition was 2.57% in test [1]; 0% in test [2]; -0.747% in test [3]; -3.57% in test [4]; -1.05% in test [5].
Turning to `COc1ccc(CNC(=O)Cn2ccc3cc(S(=O)(=O)N4CCC(C)CC4)ccc32)c(OC)c1`, the activity change, negative = inhibition is 0.357% in test [1]; 2.95% in test [2]; -3.94% in test [3]; -18.4% in test [4]; -1.18% in test [5].
As for `Cc1ccc(NC(=O)CSc2nnc3n(CCCOC(C)C)c(=O)c4ccccc4n23)cc1`, the activity change, negative = inhibition was -1.47% in test [1]; 1.67% in test [2]; 3.42% in test [3]; -1.12% in test [4]; -1.43% in test [5].
Turning to `CCOc1ccccc1CNC(=O)C(C)n1ccc2cc(S(=O)(=O)N3CCCCC3)ccc21` (stereo not given), the activity change, negative = inhibition in test [1] is -5.93%; in test [2], -0.301%; in test [3], -3.98%; in test [4], -13.7%; in test [5], -3.06%.
Taken in the same sequence, the figures for `CC(C)CCNC(=O)C1(C)Cn2c(cc3ccccc32)C(=O)N1C1CCN(Cc2ccccc2)CC1` (stereo not given) were -3.8%, 0.439%, -6.61%, -7.96% and -6.78%.
`CC1(C(=O)NCc2ccccc2)Cn2c(ccc2-c2ccco2)C(=O)N1Cc1ccc2c(c1)OCO2` (stereo not given): the activity change, negative = inhibition in test [1] is -4.85%; in test [2], 0%; in test [3], 1.82%; in test [4], -2.4%; in test [5] it was -0.781%.
`Cc1nnc(CNC(=O)C2CCC(=O)N(CCN3CCOCC3)C2)o1` (stereo not given): the activity change, negative = inhibition in test [1] was -1.35%; in test [2] it was -1.46%; in test [3] it was 1.72%; in test [4], -1.02%; in test [5], -1.38%.
In the same order, the values of `Cc1ccc(C)c(N2CCN(C(=O)c3cc4n(n3)CC(C)(C(=O)NCCC(C)C)N(C)C4=O)CC2)c1` (stereo not given) are 10.2%, 0.494%, 8.94%, 4.97% and 8.59%.
